# Measured values from article PMC4336329 (PLoS ONE, 2015).
# Among all 310,000 compounds or so, about 14,000 (4.5%) showed an effect of 50% or more. The effect is printed as a negative number. The list shows a part of the results.
# Molecular target: human ether-à-go-go-related gene (hERG) potassium channel (human, UniProt Q12809)
# Test: primary screen, population patch clamp on CHO cells stably expressing hERG
# 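Also: peak tail current of the secondary pulse compared with the same well before compound.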
# Sequence of human ether-à-go-go-related gene (hERG) potassium channel (Q12809 whole entry, looked up): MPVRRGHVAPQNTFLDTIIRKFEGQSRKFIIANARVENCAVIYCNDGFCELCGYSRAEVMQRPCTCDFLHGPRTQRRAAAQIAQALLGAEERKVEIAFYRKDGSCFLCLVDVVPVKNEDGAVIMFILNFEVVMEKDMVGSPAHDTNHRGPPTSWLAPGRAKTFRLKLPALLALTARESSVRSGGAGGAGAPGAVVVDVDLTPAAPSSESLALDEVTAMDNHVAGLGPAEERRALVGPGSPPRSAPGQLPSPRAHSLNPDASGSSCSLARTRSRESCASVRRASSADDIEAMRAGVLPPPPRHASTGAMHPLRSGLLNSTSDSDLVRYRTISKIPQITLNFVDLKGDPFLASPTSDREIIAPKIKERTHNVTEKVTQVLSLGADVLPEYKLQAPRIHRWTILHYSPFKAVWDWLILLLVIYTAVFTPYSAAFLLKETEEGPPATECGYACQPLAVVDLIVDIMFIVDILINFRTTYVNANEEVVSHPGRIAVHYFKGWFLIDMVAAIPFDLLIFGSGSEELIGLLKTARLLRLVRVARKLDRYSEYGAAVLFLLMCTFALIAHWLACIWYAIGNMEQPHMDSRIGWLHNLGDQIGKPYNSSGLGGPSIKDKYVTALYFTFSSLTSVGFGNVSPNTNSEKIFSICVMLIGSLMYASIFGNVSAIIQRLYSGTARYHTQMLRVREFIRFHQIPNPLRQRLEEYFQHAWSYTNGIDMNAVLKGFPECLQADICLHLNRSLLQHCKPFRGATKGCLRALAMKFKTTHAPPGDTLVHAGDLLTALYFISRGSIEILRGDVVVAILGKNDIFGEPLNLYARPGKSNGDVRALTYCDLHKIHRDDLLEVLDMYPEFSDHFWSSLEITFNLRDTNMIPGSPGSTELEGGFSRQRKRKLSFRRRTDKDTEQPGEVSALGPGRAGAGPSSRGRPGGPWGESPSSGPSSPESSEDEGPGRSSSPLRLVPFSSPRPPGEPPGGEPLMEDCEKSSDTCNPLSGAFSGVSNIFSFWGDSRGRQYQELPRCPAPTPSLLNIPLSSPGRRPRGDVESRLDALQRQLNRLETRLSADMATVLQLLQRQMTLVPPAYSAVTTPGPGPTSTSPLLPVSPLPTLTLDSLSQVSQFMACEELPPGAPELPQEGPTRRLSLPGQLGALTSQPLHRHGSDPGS
row,SMILES,"hERG current change (%, negative = inhibition) at 10uM"
1,CCn1c(N2CCN(C(=S)NCCc3ccccc3)CC2)nc2ccccc21,-50%
2,COc1ccccc1-n1c(SCC(=O)N2CCCCC2)nc(O)c(Cc2ccccc2)c1=O,9.43%
3,O=c1c(Br)c(N2CCOCC2)cnn1-c1ccccc1,30.3%
4,O=C(CSc1nnnn1Cc1ccccc1)Nc1ccc2c(c1)OCO2,2.53%
5,CCCCn1c(N)c(N(CC(C)C)C(=O)c2ccc(-n3c(C)ccc3C)cc2)c(=O)[nH]c1=O,14.4%
6,CN(C)c1nc(Oc2ccc(=O)[nH]n2)nc(N2CCOCC2)n1,4.14%
7,CCN(CC)c1ccc(C(=O)NNC(=O)c2ccc3c(=O)n4c(nc3c2)CCC4)cc1,5.8%
8,Cc1ccc(C2C(C(=O)O)c3ccccc3C(=O)N2C)o1 (centres unmarked),7.24%
9,CCc1c(C)c2ccc(OCC(=O)NCC3CCC(C(=O)O)CC3)cc2oc1=O (centres unmarked),8.26%
10,COCCn1c(SCC(=O)Nc2cccc(S(N)(=O)=O)c2)nc2ccccc21,6.48%
11,COC(=O)c1ccc(COC(=O)CCc2nc(-c3ccccc3)c(-c3ccccc3)o2)cc1,-20.9%
12,COc1ccc(-c2[nH]ncc2CN2CCN(Cc3cccs3)CC2)cc1F,-31.2%
13,Cc1c(C#N)c(NC(=O)CCl)n(Cc2ccc(F)cc2)c1C,12.8%
14,CN1CCN(C(=O)c2cc3nc(-c4ccc(Cl)cc4)cc(C(F)(F)F)n3n2)CC1,-5.1%
15,CC(=O)N1CCSc2ccc(S(=O)(=O)N3CCC(C)CC3)cc21,-13.7%
16,COc1ccccc1OCC(=O)OC/C(O)=C(\C#N)c1nc2ccccc2[nH]1,16.9%
17,COc1ccc(NS(=O)(=O)c2ccc(C)c(NC(=O)C3CCCO3)c2)cc1 (centres unmarked),-22.5%
18,COc1cccc(C2=NN(C(=O)CCCC(=O)O)C(c3cccs3)C2)c1 (centres unmarked),15%
19,O=C(O)c1ccc(S(=O)(=O)Nc2ccc3c(c2)OCCO3)cc1,-0.656%
20,O=C(Nc1ccc(NC(=O)c2ccco2)nc1)c1ccco1,18%
21,CCCCN(C)C(=O)C1CCCN(S(=O)(=O)c2ccc3c(c2)CC(C)N3C(=O)C2CC2)C1 (centres unmarked),-26.8%
22,Cc1cc(NC(=O)c2cccs2)n(-c2ccccc2)n1,6.4%

row,SMILES,"hERG current change (%, negative = inhibition) at 10uM"
1,Cc1ccc(C)c2[nH]c(=O)c(CN(CCCN(C)C)C(=O)NCc3ccccc3)cc12,-52.2%
2,COCCn1cc(C(=O)N2CCC(C)CC2)c2c3ccccc3n(C)c2c1=O,-27%
3,CCCCN1CC(=O)N2[C@H]3c4cc(Cl)ccc4OC[C@@H]3[C@H](c3ccccc3)[C@]2(C)C1=O,0.457%
4,C=CCn1c(SCc2nc3ccccc3c(=O)[nH]2)nc2scc(C3CC3)c2c1=O,5.17%
5,Cc1ccc(S(=O)(=O)Nc2cccc(C(=O)NCC3(N4CCCCC4)CCCCC3)c2)cc1F,-82.6%
6,CC(C)c1nc2sc3c(NCc4ccccc4)ncnc3c2c2c1COC(C)(C)C2,16.5%
7,CCn1cc(S(=O)(=O)CC(=O)Nc2cc(C)ccc2C)c2ccccc21,-2.2%
8,Cc1ccc(O)c(N=Nc2nccs2)c1,14.2%
9,NC(=NCCCCCCN=C(N)/N=C(\N)Nc1ccc(Cl)cc1)/N=C(\N)Nc1ccc(Cl)cc1,-5.23%
10,CC(=O)Nc1ccc(NC(=O)Nc2cc(C)cc(C)c2)cc1,13.7%
11,COc1ccccc1-n1ccnc1SCC(=O)NC(C)(C)C,13.3%
12,CSc1cccc2sc(NC(=O)C3=COCCO3)nc12,5.96%
13,CCN1CCN(C(=O)c2oc(=O)c3ccccc3c2-c2ccc(C)cc2)CC1,-22.2%
14,CCc1ccc(N(C(=O)c2csnn2)C(C(=O)NC(C)(C)CC)c2cccnc2)cc1 (centres unmarked),0.573%
15,Cc1c(CCC(=O)NCC(=O)O)c(=O)oc2cc3occ(-c4ccccc4)c3cc12,7.75%
16,O=C(NC1CC1)c1ccc(CS(=O)(=O)c2c(Cl)cccc2Cl)o1,-5.87%
17,CCC(C)NC(=O)c1ccc2nc(-c3ccc(OC)c(OC)c3)c(-c3ccc(OC)c(OC)c3)nc2c1 (centres unmarked),3%
18,CSCC[C@H](NC(=O)c1cc2c([nH]c3ccccc32)c(-c2ccccc2)n1)C(=O)O,27%
19,CSc1nccc(Nc2ccccc2)c1C#N,3.86%
20,COc1ccc(CNc2ncnc3c2[nH]c2ccccc23)cc1,1.67%
21,COC(=O)C1=C(c2ccccc2)C[C@@H]2CC[C@H]1N2C(=O)NC1CC1,-4.75%
22,Cc1ccc(C(=O)NNC(=O)c2ccncc2)cc1S(=O)(=O)N1CCCCC1,-14%

row,SMILES,"hERG current change (%, negative = inhibition) at 10uM"
1,Cc1cccc(C)c1NC(=O)CNC(=O)c1ccc(N2CCCC2=O)cc1,6.49%
2,CCn1ncc(/C=N/NC(=O)c2cc(Cl)ccc2OC)c1C,4.65%
3,C=CCn1c(-c2ccc3[nH]c(C)c(C)c3c2)n[nH]c1=S,16.7%
4,NS(=O)(=O)c1ccc(CNC(=O)c2cc(=O)c3ccccc3o2)cc1,10.8%
5,CCOC(=O)C(NS(=O)(=O)c1ccccc1)(C(F)(F)F)P(=O)(OC(C)C)OC(C)C (centres unmarked),19%
6,Cn1c(O)c(N=Nc2nc(-c3ccccc3)cs2)c2ccccc21,-6.78%
7,CN(C)S(=O)(=O)c1cccc(NC(=O)c2cncc(Br)c2)c1,-3.39%
8,Cc1ccc(C(=O)N2CCN(Cc3ccc4c(c3)OCO4)CC2)cc1S(=O)(=O)N1CCOCC1,-22%
9,Cc1nn(CC(=O)c2ccccc2)c(=O)c2nn(-c3ccccc3F)c(C)c12,-9.51%
10,Cc1cc(NC(=O)c2ccccc2)n(-c2nc3ccccc3[nH]2)n1,27.5%
11,N#C/C(=C\c1cccnc1)C(=O)Nc1ccc(SC(F)F)cc1,-39.4%
12,COc1cccc(/C=C2\SC(=O)N(CCC(=O)NC3CCS(=O)(=O)C3)C2=O)c1 (centres unmarked),10.2%
13,Cc1cc(N2CCN(c3nnnn3-c3ccccc3)CC2)n2ncnc2n1,-60.2%
14,CC(C)(C)Cc1nnc(NS(=O)(=O)Cc2ccccc2)s1,-7.06%
15,CCCCOn1c(C)c(C(C)=O)c2c3no[n+]([O-])c3ccc21,-38.9%
16,CC1=CC2=NC(=O)/C(=C\c3cccn3CCOc3ccccc3)C(=N)N2O1,-3.86%
17,CC(=O)Nc1ccc(C(=O)N/N=C(\C)CC(=O)Nc2ccc(OCc3ccccc3)cc2)cc1,9.5%
18,CCOc1ccc(/C=C/C(=O)Oc2ccc(OC)cc2)cc1,13.4%
19,Cc1cccc(C(=O)NC2CCN(C(=O)NCc3ccccc3)CC2)c1,-12.1%
20,Cc1ccccc1OCC(=O)NNC(=O)c1ccc2c(=O)n3c(nc2c1)CCC3,-14.3%
21,N#Cc1ccc(OCC(=O)Nc2nc(-c3cccnc3)cs2)cc1,2.27%
22,C=CCC1(C#N)C(SC)=NC2=C(C(=O)CC(C)(C)C2)C1c1ccc(Br)cc1 (centres unmarked),7.72%

row,SMILES,"hERG current change (%, negative = inhibition) at 10uM"
1,CCOC(=O)C1CCCN(Cc2cc(=O)oc3cc(C)c(C)cc23)C1 (centres unmarked),-19.3%
2,COC(=O)c1ccc(Oc2ccc(C(F)(F)F)cn2)cc1,11.9%
3,Cc1ccc(-c2nc(CNC(=O)c3cc(C)on3)cs2)cc1,8.32%
4,CNC(=O)COC(=O)c1ccccc1Nc1ccccc1,0.541%
5,COc1ccc(OC)c(NC(=O)CCNS(=O)(=O)c2ccc3[nH]c(=O)oc3c2)c1,-0.0171%
6,Cn1c(SCC(=O)NCCc2ccccc2)nnc1-c1ccco1,-4.63%
7,COc1ccc(NC(=O)CSc2nnc(Cc3cccs3)n2-c2ccc(C)cc2)cc1,-20.6%
8,Cc1noc(C)c1CSc1nc2ccccc2s1,-10.1%
9,O=C(Nc1ccc(N2CCN(C(=O)c3cccs3)CC2)cc1)c1ccc([N+](=O)[O-])o1,-25.5%
10,O=C(O)CCCn1cc(NC(=O)COc2ccccc2)cn1,6.47%
11,CCCCNC(=O)/C=C/c1cccs1,34.7%
12,CCOc1ccc(CCNC(=O)C2CCCN(S(C)(=O)=O)C2)cc1OCC (centres unmarked),7.79%
13,Cc1nc2ccccc2c(=O)n1NC(=O)C1CCC(C(C)(C)C)CC1 (centres unmarked),1.82%
14,COc1ccc(NC(=O)C2CCN(S(=O)(=O)c3ccc(C)cc3)CC2)cc1OC,-21.3%
15,COc1ccc(NC(=O)C23CC4CC(C2)CC(n2cnc(Br)n2)(C4)C3)cc1OC,-2.41%
16,CCOC(=O)C1(C)C=C(Nc2ccc(C)cc2)C(=O)N1c1ccc(C)cc1 (centres unmarked),28.5%
17,COc1cccc(SCC2(O)CCN(C(=O)c3ccc(Cl)cc3)CC2)c1,-69%
18,C=CCn1c(C)cc(C(=O)CSc2nc3ccccc3o2)c1C,18%
19,O=C(c1cccc(C(F)(F)F)c1)C1CCCN(C(=O)CN2CCOC2=O)C1 (centres unmarked),-4.08%
20,O=C(c1ccc2c(c1)OCO2)C1CCCN(CC2CCCCC2)C1 (centres unmarked),-71.8%
